The record followed here is the supplement of paper PMC11417369.

This is one part of the list.

The assay has as its system PfHDP1 homeodomain (GST-tagged). Description: gcPBM binding intensity (ln(normalized median fluorescence intensity)); higher = stronger DNA binding. In short, it runs like this:
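Binding intensity is the highest Masliner-normalised natural-log median intensity over replicate spots in either probe orientation. To obtain it, GST-tagged P. falciparum DNA-binding domains made in E. coli were incubated for 1 h on an Agilent 4 × 180k array of primer-extended double-stranded 36-bp intergenic genomic probes plus negative controls. Detection used Alexa488 anti-GST antibody with scanning at 488 nm.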
With “AAAAACAAAAAAAAAACACACAATTCTAGTTATTTT [CACACA_site2767]”, the “gcPBM binding intensity (ln)” value was 6.04. On to “CACCAAACTAAATGTACACACATACATAAATATAAA [CACACA_site4765]”, for which the “gcPBM binding intensity (ln)” value turned out to be 6.57. Take “TTTAAATTTTAATATGCACACAAAATGTTATATTAA [CACACA_site8015]”: the “gcPBM binding intensity (ln)” value is 9.9. As for “TTTCTGATATTTTTATATTTTCTTATATATATATAT [GTGCAC_negctrl_site652]”, the “gcPBM binding intensity (ln)” value was 8.86. To “AATACGAAGGATAAGAGTACTAATTAAATAAATGAA [XGTACX_site523]” belongs 6.87; to ATATAAGAATAAATAGTGCAAAATAAATGATTATTT, 9.83; to “GTATATAAGTATATATGTACATATATTTTATATATA [XGTACX_site4745]”, 6.33. Turning to “TTTTATAATTTAAAATAATGAAACTTCTTTCTATTT [TGCATGCA_negctrl_site324]”, the “gcPBM binding intensity (ln)” value worked out at 6.03. Turning to TTTTTTTTTTTTTTGGTGCGATCTTTTAAATGATCC, the “gcPBM binding intensity (ln)” value is 6.48. With TTTGAAAAGTATGAGGTGCAAAAAATGTAATGAAAT the figure was 9.92. “TATATTATTATGCATAGTACGTACTGTGATAAGAAT [XGTACX_site2956]”: the “gcPBM binding intensity (ln)” value turned out to be 6.66. As to “CATTTTAAAACAGACACACACCAAAAAAAAAAAAAA [CACACA_site6259]”, the “gcPBM binding intensity (ln)” value was 6.42. Take “TTTTTCTGTCGTTGTTGTACTTGAGGAGTAACAATT [XGTACX_site7852]”: the “gcPBM binding intensity (ln)” value came to 7. With “TTTTCAATTAATAATACACACATGTATATATTATTA [CACACA_site3311]” the figure was 6.81; with “TACAAATACATTACATGTACATATTTAATAATATCA [XGTACX_site2075]”, 6.44; with “AAGAAAAATATATATATAAATAAATAAATATATATA [TGCATGCA_negctrl_site330]”, 6.15.

“TAATAAACCAAACTAAACAATATATCAAAAAGCACA [CACACA_negctrl_site269]”: the “gcPBM binding intensity (ln)” value stood at 6.99. Turning to “AATAATAAATATATATATATATATATATATATATTT [CACACA_negctrl_site786]”, the “gcPBM binding intensity (ln)” value is 7.09. Regarding “GCCTTTTTATTTAGAACACACACAAAAAAAAAAAAA [CACACA_site8520]”, the “gcPBM binding intensity (ln)” value worked out at 6.47. Regarding “TATTATATCGAACACTGTACTTTTTTATTCAACCTA [XGTACX_site493]”, the “gcPBM binding intensity (ln)” value was determined as 6.59. To “ATATTATATAATAATGCATGCACCTTATTTTCATTT [TGCATGCA_site405]” belongs 8.68. For “ATTATATTATTTTAAAGTACACACATATATTAATAT [XGTACX_site4769]”, the “gcPBM binding intensity (ln)” value came to 6.85. With “AACAAAATAAAAATAACACACACATTTATATATATA [CACACA_site8313]” the figure was 7.55; with “AAAAGTTGTTTATAATGTACAAGGTAGAAAAAAACA [XGTACX_site1454]”, 7.04; with “TAAATGGATTGTTCAGGTACACATAAATATGATATT [XGTACX_site6963]”, 6.32. To “TGACTACATAAAATGACACACACAAACTTTAAAATT [CACACA_site9151]” belongs 6.51; to “ATATATTTTTAGCACAGTACAATATAATTAAATATA [XGTACX_site6779]”, 7.02. In the case of “ATAAATACTTTTTGGTGTACACTTTTAAATGAAAAA [XGTACX_site3042]”, the “gcPBM binding intensity (ln)” value was determined as 6.72. Regarding “ATTTTTCCTCTCTTTTGTACTTATATATATATATAT [XGTACX_site7405]”, the “gcPBM binding intensity (ln)” value was 9.

Regarding “CAATTAAAGAAAAACAGTACGTGTATCAAACATCCT [XGTACX_site8990]”, the “gcPBM binding intensity (ln)” value was determined as 6.52.

As for “ATATGCTAATAAAATTGTACATATTATTCATATTGT [XGTACX_site2344]”, the “gcPBM binding intensity (ln)” value was 6.37. As for “AAAAAAAAAAAAAAAAAAATAAAAAATAAATAAATA [CACACA_negctrl_site1498]”, the “gcPBM binding intensity (ln)” value was determined as 6.57. To “TATATATGTATGTATGCATGCCCTTTTTTAAAAAAA [TGCATGCA_site434]” belongs 6.81; to “AAGAAAAAACAAACATGTACACATAATTTAGTTTTT [XGTACX_site3121]”, 5.93; to “TAGTATTATTATTATGCACACAAAAATATTTATACA [CACACA_site9219]”, 10.4. With “TTTTTTTTTTTTTTTTGTACATAATTATATATTTAC [XGTACX_site7540]” the figure was 6.42; with “AGCATTTCTTTTACATGTACATAATATTTTTAATAA [XGTACX_site1968]”, 7.3; with “TCCTAAAAAAAAAAAAAAAATGAAAAAGGAAAAAAA [CACACA_negctrl_site1646]”, 5.62. Regarding “TATAAATACATACATACACACATATATATATATATT [CACACA_site6116]”, the “gcPBM binding intensity (ln)” value worked out at 6.81.

With “TAAAAATAATATATTTGTACATATGTGTATACATAA [XGTACX_site741]”, the “gcPBM binding intensity (ln)” value is 6.64. With “AAAAAAAAAAAAAAAAGTACTAAATGTAAAAGAATA [XGTACX_site2164]” the figure was 6.37; with “CAAGCACAGAAACACACACACACACCGACACAGACA [CACACA_site4359]”, 6.74. With “AATGTATTAAAATTACGTACATATGCACATTTTATA [XGTACX_site5046]” the figure was 8.53. As to “TACTCTTTCCAGAAGTGTACATAGAAATAATTACAT [XGTACX_site2668]”, the “gcPBM binding intensity (ln)” value amounted to 6.43. Take “TTTTTTATTTTGTGCACACACATAAAAATATAAATA [CACACA_site6497]”: the “gcPBM binding intensity (ln)” value was 11.4. “TATTTTTTTATTTGTGCATGTCATATTTAAACATAA [TGCATGCA_site1006]”: the “gcPBM binding intensity (ln)” value worked out at 9.04. To “CACGCATACGGACACACACACACACCGATATATATA [CACACA_site4521]” belongs 6.87. Turning to “TTTTTTTTTTTTTTTTTTTTCATTCAATTATATTTA [CACACA_negctrl_site712]”, the “gcPBM binding intensity (ln)” value turned out to be 6.23. To “TTATCACATAAACGATGTACGTACTAGGTTTTTTTT [XGTACX_site2147]” belongs 6.36; to “TGAATAATATACATACGTACATACATATATATAATA [XGTACX_site1302]”, 6.17. As for “ATAAAAAGGAAACACACACACACACCCATATATATA [CACACA_site904]”, the “gcPBM binding intensity (ln)” value worked out at 6.98. As for “AACTAATATAATAATACATGCACATAAAAATATATA [TGCATGCA_site606]”, the “gcPBM binding intensity (ln)” value was 9.35. With “AAAGGAATATAATGATGTACACAAATATATATACAT [XGTACX_site5347]”, the “gcPBM binding intensity (ln)” value worked out at 6.72. With “GTAGTAAATAGGAGGATGCATATGGCACACATTATA [TGCATGCA_negctrl_site59]” the figure was 8.45; with “ATATAAAAATTAAAATGTACATATCTTATTATAATA [XGTACX_site983]”, 6.09; with “CAACATAAAAATTAAGCATGCAATAGACTTGTGTTG [TGCATGCA_site417]”, 6.76. For the sequence “TAATAAAATAATATCACACATATTTATATATATTAT [CACACA_site5814]”, the “gcPBM binding intensity (ln)” value amounted to 6.12. Consider “GTTTAAAAAAATTATCAACTTTAAAAAGGTAACATT [XGTACX_negctrl_site203]”, for which the “gcPBM binding intensity (ln)” value was 6.08. As to “ATATTTTATTATTGTTGTACTTTTTTTTTTTGATTG [XGTACX_site4091]”, the “gcPBM binding intensity (ln)” value came to 6.47. Turning to “ATAATATGAAAACACACACACACACTAATAAAAAAA [CACACA_site8617]”, the “gcPBM binding intensity (ln)” value is 6.97.

For “TTTAATAAATAAATAAATAAAATATATTAAAAACCA [CACACA_negctrl_site80]”, the “gcPBM binding intensity (ln)” value was found to be 6.19.

As for “TTTACTTTTTTTTCTTGTACTCATACATACTATCAT [XGTACX_site4919]”, the “gcPBM binding intensity (ln)” value was found to be 7.07. With “AAATTTCAATAATCTACACACATAAAAAAACAAAAG [CACACA_site1702]” the figure was 7.1; with “GGCAACAATGTAGATTGTACATATGAATTTTACAAT [XGTACX_site5655]”, 6.25. With ATATATATTATCATTGTGCACTTATTTATATACCTT the figure was 10.4. With “TATTTAATAAAGAAATAAAAATAAAGAAAAAAAAAA [CACACA_negctrl_site74]” the figure was 6.23; with “ACCTACATAACATACACACGCATATATATAATTTTA [CACACA_site2847]”, 7.35; with “AATTATTTATCGGAATGTACATAAAAACATATGTAT [XGTACX_site7443]”, 7.07. Turning to “AATAATATCATTTAGACACACACTCTTACAATATGT [CACACA_site8832]”, the “gcPBM binding intensity (ln)” value was 6.56. To “TATATACAAAATGCCTGTACATATATATTTATTTAT [XGTACX_site761]” belongs 6.27; to “CATGCAAAAAATTCCACACACACACCCACATATAAA [CACACA_site1229]”, 7.03. On to “CTTTCTTATTTGAACGCATGCATTTGTACCTTTTAT [TGCATGCA_site671]”, for which the “gcPBM binding intensity (ln)” value was 6.85.

In the case of “GTATTATATTTCAACTGTACGTAAAACTATTAAAAT [XGTACX_site3679]”, the “gcPBM binding intensity (ln)” value is 6.55. With “TTCATTTAGCAAGAATGTACTTATATATATATATAT [XGTACX_site3401]” the figure was 9.23.

Turning to “CAAAAAAATGTGAAGGCATGCAAATATGTAAAATAA [TGCATGCA_site921]”, the “gcPBM binding intensity (ln)” value is 7.26. With “ATAAAGCCATACAATACACACATTTTACATGGGGGT [CACACA_site9072]” the figure was 7.27; with “CCATAAAAAGGATACACACACACACCGACATATATA [CACACA_site4653]”, 6.89. To “AATAGCCCATATGGAATACACACTGAAAATAAAAAA [CACACA_site3373]” belongs 6.86. As for “AAAAATATAATATAATGTACACAAAAAAAAAAAAAT [XGTACX_site4914]”, the “gcPBM binding intensity (ln)” value was determined as 6.56. “TATAAATTTGTTGTTGCATGCAGTATACCAAAAAAA [TGCATGCA_site445]”: the “gcPBM binding intensity (ln)” value stood at 7.18. To “ATTTGTAATTTATATTCACACATTCAAAAAAATGAG [CACACA_site6057]” belongs 6.32; to “TAAAATGTAATCTGAACACACATATTTTTTTAATAT [CACACA_site1768]”, 6.21; to TAATATATTTTTAACATGCACTGTATTTTAATATAT, 7.31. On to “TAATTAAAGTTATCTACACACCTTTATAGATATATA [CACACA_site7778]”, for which the “gcPBM binding intensity (ln)” value came to 6.21. With “TATAAAACAAATATATGTACATATCATAGTATAATA [XGTACX_site2965]” the figure was 6.4; with “TATACAAATATATATGCACACACATATATGTATATG [CACACA_site9007]”, 10. Turning to “TCTGGATTGGATTACAAGAAAATAAAATATAAAATA [CACACA_negctrl_site122]”, the “gcPBM binding intensity (ln)” value is 6.22. In the case of “AAAAAAAAAAAAAATACACACACACCGATATATATA [CACACA_site8142]”, the “gcPBM binding intensity (ln)” value was determined as 6.82. For “ATACATATAATAATATGTACATATAATTATATATAT [XGTACX_site913]”, the “gcPBM binding intensity (ln)” value was found to be 6.44.
